Measurements from PMC6488650.
These are yes or no findings as the source states them, for the method shown. In cells and extracts the contact can be indirect. Some entries that bind do so weakly or less than the wild type.

Chains of the proteins cited; added tags and fusions are not shown. Lines headed by an entry give the natural chain unless they say otherwise; changes in a name come on top. Residues count along the entry.
UniProt Q96D31: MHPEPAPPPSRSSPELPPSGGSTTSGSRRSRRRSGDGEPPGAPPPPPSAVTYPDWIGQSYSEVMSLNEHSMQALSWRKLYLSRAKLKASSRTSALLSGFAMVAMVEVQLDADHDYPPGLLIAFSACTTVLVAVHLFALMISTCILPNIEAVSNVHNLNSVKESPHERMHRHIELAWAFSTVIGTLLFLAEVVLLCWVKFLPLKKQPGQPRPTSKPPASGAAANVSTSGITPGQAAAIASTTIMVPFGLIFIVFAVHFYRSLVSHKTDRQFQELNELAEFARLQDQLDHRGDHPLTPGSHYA
ORAI1β-CFP: residues 64-301 of Q96D31
UniProt P24588: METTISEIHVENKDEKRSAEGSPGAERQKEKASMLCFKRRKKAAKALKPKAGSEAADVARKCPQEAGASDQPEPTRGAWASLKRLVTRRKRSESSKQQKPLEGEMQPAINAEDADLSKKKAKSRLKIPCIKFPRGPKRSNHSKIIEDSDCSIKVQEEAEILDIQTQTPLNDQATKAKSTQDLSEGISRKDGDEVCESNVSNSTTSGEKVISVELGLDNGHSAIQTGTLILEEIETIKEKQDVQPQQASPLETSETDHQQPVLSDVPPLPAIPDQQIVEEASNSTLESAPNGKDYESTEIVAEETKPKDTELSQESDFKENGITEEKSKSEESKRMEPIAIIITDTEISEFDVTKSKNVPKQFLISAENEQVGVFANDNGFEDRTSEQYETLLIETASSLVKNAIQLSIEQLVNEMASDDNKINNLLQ
UniProt P40146: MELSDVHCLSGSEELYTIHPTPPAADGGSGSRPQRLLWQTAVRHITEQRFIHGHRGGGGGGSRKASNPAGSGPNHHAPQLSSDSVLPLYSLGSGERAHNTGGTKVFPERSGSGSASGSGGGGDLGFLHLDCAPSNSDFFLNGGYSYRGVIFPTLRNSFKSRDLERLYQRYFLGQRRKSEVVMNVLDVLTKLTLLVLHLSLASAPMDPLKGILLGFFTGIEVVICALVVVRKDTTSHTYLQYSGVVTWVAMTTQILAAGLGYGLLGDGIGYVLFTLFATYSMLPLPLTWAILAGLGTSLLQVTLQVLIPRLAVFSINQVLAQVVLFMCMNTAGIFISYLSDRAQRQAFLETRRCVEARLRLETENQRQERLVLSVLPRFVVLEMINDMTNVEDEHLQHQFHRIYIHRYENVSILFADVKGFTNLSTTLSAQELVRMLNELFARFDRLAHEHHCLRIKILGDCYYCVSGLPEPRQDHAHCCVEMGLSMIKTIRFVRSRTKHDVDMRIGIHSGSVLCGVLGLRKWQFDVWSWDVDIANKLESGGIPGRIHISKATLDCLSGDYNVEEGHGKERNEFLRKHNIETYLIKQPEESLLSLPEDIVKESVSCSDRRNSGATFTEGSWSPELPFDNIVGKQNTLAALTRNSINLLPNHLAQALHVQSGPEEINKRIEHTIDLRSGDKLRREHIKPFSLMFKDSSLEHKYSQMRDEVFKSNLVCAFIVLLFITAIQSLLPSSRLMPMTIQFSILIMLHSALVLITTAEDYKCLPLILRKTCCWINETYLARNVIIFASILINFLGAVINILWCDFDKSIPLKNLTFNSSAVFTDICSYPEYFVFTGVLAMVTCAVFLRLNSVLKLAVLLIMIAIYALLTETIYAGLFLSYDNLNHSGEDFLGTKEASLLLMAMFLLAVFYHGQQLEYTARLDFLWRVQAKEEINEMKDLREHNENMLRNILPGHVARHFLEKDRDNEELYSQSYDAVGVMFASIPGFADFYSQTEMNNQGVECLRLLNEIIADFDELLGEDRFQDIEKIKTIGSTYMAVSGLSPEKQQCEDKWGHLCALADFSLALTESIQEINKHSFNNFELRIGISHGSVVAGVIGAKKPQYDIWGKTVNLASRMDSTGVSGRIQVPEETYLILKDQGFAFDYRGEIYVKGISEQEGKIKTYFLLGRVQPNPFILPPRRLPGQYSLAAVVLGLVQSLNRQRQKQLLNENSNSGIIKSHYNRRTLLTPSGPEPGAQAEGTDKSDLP

Legend:
eYFP-ORAI1 = eYFP-ORAI1 (UniProt Q96D31); assay: FRET or BRET; E-FRET microscopy in cells with N-terminally tagged YFP-ORAI1/β and CFP-AC8/AKAP; room temperature; regions close to the plasma membrane; images every 10 min for 40 min, before and after carbachol (500 µM)
eYFP-ORAI1β = eYFP-ORAI1β (UniProt Q96D31); assay: as above
ORAI1-CFP = ORAI1-CFP (UniProt Q96D31); assay: co-IP; called a pull-down assay by the paper; Dynabeads coated with mouse anti-GFP antibody precipitate ORAI1-CFP or ORAI1β-CFP from RIPA lysates of ORAI1-KO cells; untagged AC8 detected by western blot with anti-AC8; all steps at 4 °C
ORAI1β-CFP = ORAI1β-CFP (UniProt Q96D31); assay: as above

Substance	binding (eYFP-ORAI1)	binding (eYFP-ORAI1β)	binding (ORAI1-CFP)	binding (ORAI1β-CFP)
CFP-AKAP79 (from UniProt P24588 1-427)	binds	no binding	–	–
adenylyl cyclase 8 (AC8), untagged (from UniProt P40146 1-1248) (enzyme)	–	–	binds	no binding
CFP-AC8 (from UniProt P40146 1-1248) (enzyme)	binds	–	–	–
